Measured values taken from PubChem BioAssay AID504333 (National Center for Advancing Translational Sciences (NCATS), 2011).
“And” between values parts separate entries of the source, which are not always exact repeats. Identical values can stand only once. Screen size: about 360,000 compounds; about 16,000 (4.4%) were called active. Inconclusive means that the source gave no clear call. Such entries were picked first, then a sample of the others. The call rests on the fitted dose curve; in most records, active means well fitted inhibition curve with a large enough effect; inconclusive means small, poorly fitted or top-dose-only effect; inactive means no such curve, though single readings can be large or run the other way. Potencies of inconclusive entries are doubtful fits and often do not repeat.

What follows are compounds tested against Bromodomain adjacent to zinc finger domain protein 2B (Homo sapiens) (UniProt Q9UIF8) (assay: qHTS Assay for Inhibitors of BAZ2B). Conditions: AlphaScreen BAZ2B-H3K14Ac peptide displacement; activity change, negative = inhibition: at 114 µM (top of the series).
How it was run: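 AlphaScreen luminescence quantifies BAZ2B engagement of H3K14Ac peptide; the protein and biotinylated peptide are both at 50 nM final, buffer PBS pH 7.4 with 0.01% Tween-20, all steps at room temperature.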
Further: nearly all actives have a fitted effect of over 60% in size.
On the % scale 0 is the no-effect control and ±100 the full control effect; potency means the concentration at half of the fitted maximal effect; tags describe the fitted curve by direction and shape.

Chain of UniProt Q9UIF8 (Q9UIF8 whole entry, looked up, the tested form may be a part): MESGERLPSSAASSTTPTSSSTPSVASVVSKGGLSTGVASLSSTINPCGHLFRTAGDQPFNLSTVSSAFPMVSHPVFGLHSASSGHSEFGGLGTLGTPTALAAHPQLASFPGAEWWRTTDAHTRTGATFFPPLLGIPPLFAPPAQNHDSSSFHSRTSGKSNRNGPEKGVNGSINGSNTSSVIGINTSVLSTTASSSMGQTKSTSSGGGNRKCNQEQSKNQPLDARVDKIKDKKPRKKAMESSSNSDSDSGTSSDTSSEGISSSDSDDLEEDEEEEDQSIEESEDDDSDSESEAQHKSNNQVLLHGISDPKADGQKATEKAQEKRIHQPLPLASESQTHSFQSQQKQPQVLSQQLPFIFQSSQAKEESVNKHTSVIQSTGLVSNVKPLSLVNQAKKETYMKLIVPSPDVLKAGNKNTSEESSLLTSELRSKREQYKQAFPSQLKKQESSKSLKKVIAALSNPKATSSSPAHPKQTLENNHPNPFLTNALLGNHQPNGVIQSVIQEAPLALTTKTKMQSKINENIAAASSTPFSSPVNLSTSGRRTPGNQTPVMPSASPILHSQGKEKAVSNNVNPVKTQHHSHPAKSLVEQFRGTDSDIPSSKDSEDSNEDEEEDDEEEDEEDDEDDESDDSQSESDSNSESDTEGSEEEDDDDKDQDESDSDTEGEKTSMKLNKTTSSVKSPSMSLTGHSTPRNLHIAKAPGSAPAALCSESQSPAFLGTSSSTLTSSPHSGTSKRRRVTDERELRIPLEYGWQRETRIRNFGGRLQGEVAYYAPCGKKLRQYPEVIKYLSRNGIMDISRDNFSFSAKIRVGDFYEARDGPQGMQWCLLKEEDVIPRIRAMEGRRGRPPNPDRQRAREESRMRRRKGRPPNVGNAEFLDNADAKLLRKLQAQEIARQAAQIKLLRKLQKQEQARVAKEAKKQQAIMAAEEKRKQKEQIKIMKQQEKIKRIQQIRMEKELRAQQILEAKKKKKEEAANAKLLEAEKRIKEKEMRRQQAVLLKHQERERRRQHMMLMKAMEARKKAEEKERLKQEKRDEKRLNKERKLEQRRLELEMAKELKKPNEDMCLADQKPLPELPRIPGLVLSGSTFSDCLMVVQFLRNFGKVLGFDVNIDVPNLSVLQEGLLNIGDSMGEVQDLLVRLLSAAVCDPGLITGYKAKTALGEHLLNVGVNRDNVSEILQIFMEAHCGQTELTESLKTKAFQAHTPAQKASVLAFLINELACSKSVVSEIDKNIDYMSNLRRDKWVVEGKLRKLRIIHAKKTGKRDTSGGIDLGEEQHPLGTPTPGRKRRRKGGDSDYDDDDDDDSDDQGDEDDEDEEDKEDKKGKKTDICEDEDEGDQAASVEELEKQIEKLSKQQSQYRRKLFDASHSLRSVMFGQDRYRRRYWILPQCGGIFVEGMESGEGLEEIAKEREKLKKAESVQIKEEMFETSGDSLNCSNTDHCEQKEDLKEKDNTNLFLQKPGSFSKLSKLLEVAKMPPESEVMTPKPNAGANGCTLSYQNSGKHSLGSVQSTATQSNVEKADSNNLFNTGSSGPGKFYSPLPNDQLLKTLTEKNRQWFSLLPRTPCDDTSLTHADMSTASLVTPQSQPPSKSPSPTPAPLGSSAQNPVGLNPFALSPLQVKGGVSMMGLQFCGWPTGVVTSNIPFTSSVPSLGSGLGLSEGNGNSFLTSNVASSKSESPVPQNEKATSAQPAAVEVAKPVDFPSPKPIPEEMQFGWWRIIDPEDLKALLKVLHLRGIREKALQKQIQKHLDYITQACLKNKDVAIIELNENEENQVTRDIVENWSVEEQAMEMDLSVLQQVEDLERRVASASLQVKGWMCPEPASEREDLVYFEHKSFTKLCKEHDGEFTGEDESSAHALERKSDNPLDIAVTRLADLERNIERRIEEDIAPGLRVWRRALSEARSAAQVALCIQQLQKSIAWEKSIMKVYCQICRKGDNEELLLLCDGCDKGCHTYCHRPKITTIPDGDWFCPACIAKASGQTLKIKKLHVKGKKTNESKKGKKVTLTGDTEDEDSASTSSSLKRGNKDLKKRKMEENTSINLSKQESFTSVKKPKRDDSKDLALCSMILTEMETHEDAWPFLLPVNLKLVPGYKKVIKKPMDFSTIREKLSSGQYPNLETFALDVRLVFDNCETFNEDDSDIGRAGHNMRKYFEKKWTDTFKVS

Compound	Potency	activity change, negative = inhibition
CCOC(=O)N1CCN(Cc2nc3cc(NC(C)=O)ccc3n2C(C)C)CC1	inconclusive: 79.4 µM [inhibitor, single point]	
CC(C)(C)c1ccc(C(=O)NCCOc2ccccc2)cc1	inconclusive: 89.1 µM [inhibitor, single point]	
COc1ccccc1N1CCN(C(=O)C2CCN(S(=O)(=O)c3c(C)noc3/C=C/c3ccc(C)cc3)CC2)CC1		inactive: -12.4%
COc1cc(OC)cc(C2=NC3(CCC(C)CC3)NC2=S)c1 (stereo not given)	inconclusive: 39.8 µM [inhibitor, partial curve]	
COc1ccc2c(CC(=O)OCC(=O)Nc3ccc(C)cc3)coc2c1	active: 50.1 µM	
CN(C)CCn1c(C(=O)O)cc2ccccc21	inconclusive: 89.1 µM [inhibitor, single point]	
CN(c1ccc(C(=O)N/N=C/c2cccc([N+](=O)[O-])c2)cc1)S(=O)(=O)c1ccccc1		inactive: -13.2%
COc1ccc(Cn2c(C(=O)O)c(CNCC(C)c3ccccc3)c3ccc(OC)cc32)cc1 (stereo not given)	inconclusive: 70.8 µM [inhibitor, single point]	
Cc1nn(S(=O)(=O)c2cccs2)c(C)c1Sc1ccc([N+](=O)[O-])cc1	inconclusive: 22.4 µM [inhibitor, full curve, poor fit]	
Cn1nccc1C(=O)Nc1ccc(OC(=O)c2ccnn2C)cc1		inactive: -5.6%
O=C(N=C1SC2CS(=O)(=O)CC2N1c1ccccc1)C1CCCCC1 (stereo not given)		inactive: -3.14%
Cn1c2ccc(CC(=O)O)cc2c2cc(CC(=O)O)ccc21	inconclusive: 100 µM [inhibitor, single point]	
Cc1ccc(NC(=O)CCNS(=O)(=O)c2ccc3[nH]c(=O)oc3c2)cc1N(C)C		inactive: -26.4%
CC(=Nc1ccc(C)cc1)c1sc2ccccc2c1O	inconclusive: 89.1 µM [inhibitor, single point]	
CCN(CC)c1ccc(/C=C2\CCC(/C=C(\C#N)C(=O)Nc3ccccc3F)=C2N2CCOCC2)cc1	inconclusive: 14.1 µM [inhibitor, partial curve, poor fit]	
CC(C)Cn1c(-c2ccc(F)cc2)n[nH]c1=S		inactive: 5.24%
CNc1oc(-c2ccc(C)cc2)nc1P(=O)(c1ccccc1)c1ccccc1	inconclusive: 35.5 µM [inhibitor, single point]	
CCCn1c(N)c(N(CCOC)C(=O)c2ccc(C#N)cc2)c(=O)[nH]c1=O		inactive: -8.83%
CCN(CC)CCN(C(=O)c1ccc(C(=O)c2ccccc2)cc1)c1nc2cc3c(cc2s1)OCO3	inconclusive: 17.8 µM [inhibitor, full curve]	
CCc1nnc(NC(=O)c2ccc(S(=O)(=O)N(CC)Cc3ccccc3)cc2)o1	active: 50.1 µM	
O=C(COC(=O)c1ccc(O)cc1)NCCCc1ccccc1		inactive: -3.8%
Cc1cc(Cc2ccc(N)c(C)c2)ccc1N	inconclusive: 50.1 µM [inhibitor, partial curve]	
Cc1c(Br)c([N+](=O)[O-])nn1CC(=O)Nc1ccc(Cc2ccncc2)cc1	inconclusive: 44.7 µM [inhibitor, partial curve]	
COc1cc(C(=O)Nc2nc(N)n(-c3ccccc3)n2)cc(OC)c1OC	active: 50.1 µM	

Compound	Potency	activity change, negative = inhibition
O=C(NN1CCOCC1)c1sc2cccc(F)c2c1Cl		inactive: -21.3%
O=C(NNC(=O)c1cc2cc(Br)ccc2oc1=O)c1ccc(O)cc1O	active: 11.2 µM	
O=C(Nc1ccccc1Cl)c1ccccc1Oc1ccc(C(F)(F)F)cc1[N+](=O)[O-]	inconclusive: 25.1 µM [inhibitor, full curve]	
O=C(OCC(=O)c1ccccc1Br)c1ccccn1	active: 10 µM	
O=C(Cc1ccccc1)N1CCN=C1SCc1cccc([N+](=O)[O-])c1	inconclusive: 50.1 µM [inhibitor, partial curve]	
COc1ccc(CN2CCN(Cc3cccc(F)c3)CC2)cc1OC	active: 22.4 µM	
CSCC[C@H](NC(=O)N1CCn2c1nc1ccccc12)C(=O)NCc1ccccc1	inconclusive: 89.1 µM [inhibitor, single point]	
C/C(=N\Nc1ccc(S(=O)(=O)N2CCCCC2)cn1)c1ccc(O)cc1	inconclusive: 89.1 µM [inhibitor, single point]	
COc1ccc(-c2csc3ncn(-c4ccc(C)cc4)c(=O)c23)cc1OC	inconclusive: 56.2 µM [inhibitor, partial curve]	
COc1ccccc1C1C2=C(COC2=O)Nc2cc3c(cc21)OCO3 (stereo not given)	inconclusive: 100 µM [inhibitor, single point]	
S=C(NCc1ccccn1)Nc1ccc(Br)cc1Cl	inconclusive: 79.4 µM [inhibitor, single point]	
CCCN1C(=O)C(O)(CC(=O)c2ccc(OC)c(OC)c2)c2ccccc21 (stereo not given)		inactive: 29.7%
C/C(Cl)=C/Cn1c(SCC(C)C)nc2c1c(=O)[nH]c(=O)n2C		inactive: 7.63%
O=C(C1=C(O)C(=O)N(CCN2CCOCC2)C1c1cccc([N+](=O)[O-])c1)c1cccs1 (stereo not given)	inconclusive: 100 µM [inhibitor, single point]	
COc1ccc(-c2cnnn2-c2ccc([N+](=O)[O-])cc2)cc1	inconclusive: 70.8 µM [inhibitor, single point]	
CCCN1C=CC(=C/C=C(\C#N)C(=O)OCC)C=C1	active: 50.1 µM	
Cc1cc(N2C(=O)C(O)=C(C(=O)c3ccco3)C2c2cccc(Oc3ccccc3)c2)no1 (stereo not given)	inconclusive: 20 µM [inhibitor, full curve]	
CC1CCc2noc(NC(=O)c3ccccc3[N+](=O)[O-])c2C1 (stereo not given)	inconclusive: 8.91 µM [inhibitor, full curve]	
CC(=O)NC(=S)Nc1ccc(S(=O)(=O)N(C)Cc2ccccc2)cc1	inconclusive: 79.4 µM [inhibitor, single point]	
CCOC(=O)N1CCC(Nc2c(NCCCN(CC)CC)c(=O)c2=O)CC1	inconclusive: 89.1 µM [inhibitor, single point]	
Cc1ccc(NC(=O)CN(C)C(=O)COC(=O)c2nccnc2N)cc1	inconclusive: 89.1 µM [inhibitor, single point]	
CCCCOc1ccc(NC(=O)CCSc2nccn2C)cc1	inconclusive: 70.8 µM [inhibitor, single point]	
O=C(Nc1cccnc1)c1ccc(COc2cc(Cl)ccc2Cl)o1	inconclusive: 50.1 µM [inhibitor, partial curve]	
CC1CN(c2ccc([N+](=O)[O-])c(NCCOc3ccc(Cl)cc3)c2)CC(C)N1 (stereo not given)	active: 11.2 µM	

Compound	Potency	activity change, negative = inhibition
CCN(C(=O)Cn1ncc2c(=O)oc3ccc(C)cc3c21)c1cc(OC)ccc1OC	inconclusive: 25.1 µM [inhibitor, full curve, poor fit]	
COc1ccccc1Nc1nc(-c2cccc([N+](=O)[O-])c2)cs1	inconclusive: 25.1 µM [inhibitor, partial curve]	
CCOC(=O)/C(N=Nc1ccc2c(c1)OCO2)=C(\C)O	inconclusive: 44.7 µM [inhibitor, partial curve]	
O=C(COc1ccc(/C=N/NC(=O)c2ccncc2)cc1)Nc1ccc([N+](=O)[O-])cc1		inactive: -1.72%
CCc1ccc(/C=C(/C#N)C(N)=S)s1	inconclusive: 31.6 µM [inhibitor, partial curve]	
c1ccc2c(Nc3nc4c(s3)CCCC4)cccc2c1	active: 50.1 µM	
Cc1ccc(-n2nc3ccc(NC(=O)c4oc5ccc(C)cc5c4C)cc3n2)cc1	inconclusive: 79.4 µM [inhibitor, single point]	
O=S(=O)(Nc1cccc(-c2ccc(N3CCCCCC3)nn2)c1)c1ccc(F)cc1	inactive and inconclusive: 70.8 µM [inhibitor, single point]	
O=C1C(c2cccc(Br)c2)N(CCc2ccccc2)C(=O)CN1C1CCCCC1 (stereo not given)		inactive: -9.58%
CN(C)C(=S)NC(=O)C12CC3(C)CC(C)(CC(C)(C3)C1)C2		inactive: 0.71%
O=C(Oc1cccc(C(=S)N2CCOCC2)c1)c1ccc([N+](=O)[O-])cc1[N+](=O)[O-]	inconclusive: 25.1 µM [inhibitor, full curve]	
CCOC(=O)c1c(C)[nH]c(CCC(=O)NCCCN2CCN(c3cc(Cl)ccc3C)CC2)c1C	inconclusive: 79.4 µM [inhibitor, single point]	
COc1ccc(-c2[nH]ncc2CNC(C)c2cn(C)nc2C)c(F)c1 (stereo not given)		inactive: 0.571%
COc1ccccc1NC(=O)CCn1cccc1	inconclusive: 100 µM [inhibitor, single point]	
COc1ccc(CN2CCNC(=O)C2CC(=O)NC2CCCCCC2)cc1C (stereo not given)	inconclusive: 89.1 µM [inhibitor, single point]	
CCc1ccc(-n2nc3ccc(NC(=O)c4ccc5c(c4)OCO5)cc3n2)cc1	inconclusive: 35.5 µM [inhibitor, single point]	
COc1ccc(NC(=O)CCCn2c(=O)c3cccn3c3ccccc32)c(OC)c1		inactive: -13.9%
COc1ccc(OCCCC(=O)Nc2ccc(OC)c(S(=O)(=O)N3CCOCC3)c2)cc1	inconclusive: 56.2 µM [inhibitor, partial curve]	
O=C(CCCCCN1C(=O)c2ccccc2C1=O)NCc1ccccn1	inconclusive: 89.1 µM [inhibitor, single point]	
COCCn1c(SCc2ccccc2)nc2c1c(=O)[nH]c(=O)n2C		inactive: 7.58%
O=C(NC(=S)NCc1ccccc1)c1cccc([N+](=O)[O-])c1	inconclusive: 39.8 µM [inhibitor, partial curve]	
Cc1cc(-c2ccc(C)c(S(=O)(=O)Nc3ccccc3C(F)(F)F)c2)on1		inactive: -3.02%
